# Whole data set: some 81,000 sequences, median “one-hybrid fitness for binding parS DNA” near -0.17, cut for the highest 2% near 0.51. The list shows a part of the results.
# B1: Caulobacter ParB omega fusion; a variant is named by its letters at X, in order, B8GW30 (parent)
# chain: MESVVVGEPGMSEGRRGLGRGLSALLGEVDAAPAQAPGEQLGGSREAPIEILQRNPDQPRRTFREEDLEDLSNSIREKGVLQPILVRPSPDTAGEYQIVAGERAWRAAQRAGLKTVPIMVRELDDLAVLEIGIIENVQRADLNVLEEALSYKVLMEKFERTQENIAQTIGKSXSHVANXMRLLXLPDEVQSYLVSGELTAXHARAIAAAADPVALAKQIIEGGLSVRETEALARKAPNLSAGKSKGGRPPRVKDTDTQALESDLSSVLGLDVSIDHRGSTGTLTITYATLEQLDDLCNRLTRGI
# Variants of: B1
# Test: one-hybrid fitness for binding parS DNA (scaled: cognate 1, non-cognate 0); higher = stronger binding
# Details: with parS DNA site
# In short: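 Selection: bacterial one-hybrid in E. coli USO, HIS3 reporter with the site 19 bp from the promoter, 48 hours at 37°C on M9-minus-histidine plus 0.1 mM IPTG and 5 mM 3-AT. Libraries were Caulobacter ParB with four randomised specificity codons, sequenced on Illumina before and after selection. Fitness is the rescaled log change in variant-to-wild-type read ratio, anchored to the cognate and non-cognate sites.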
row,Variant,one-hybrid fitness for binding parS DNA
1,NKKY,≤ 0.2
2,VDTA,≤ 0.2
3,QEPV,≤ 0.2
4,HASM,≤ 0.2
5,RWIE,≤ 0.2
6,AGWE,≤ 0.2
7,SWCF,≤ 0.2
8,AILG,≤ 0.2
9,AIQL,≤ 0.2
10,YSTK,≤ 0.2
11,RADK,≤ 0.2
12,RGCM,≤ 0.2
13,CDVT,≤ 0.2
14,TWDV,≤ 0.2
15,INQR,≤ 0.2
16,EAVR,≤ 0.2
17,RGAN,≤ 0.2
18,CDFR,≤ 0.2
19,PDVL,≤ 0.2
20,GQQN,≤ 0.2
21,SAVL,≤ 0.2
22,AVNS,≤ 0.2
23,RNTI,≤ 0.2
24,WFLT,≤ 0.2
25,TEIT,≤ 0.2

row,Variant,one-hybrid fitness for binding parS DNA
1,VDPH,≤ 0.2
2,VQET,≤ 0.2
3,MYAM,≤ 0.2
4,LSNP,≤ 0.2
5,VWET,≤ 0.2
6,YMVG,≤ 0.2
7,RRCN,0.452
8,GLNR,≤ 0.2
9,AFDR,≤ 0.2
10,SVER,≤ 0.2
11,GEAA,≤ 0.2
12,HRVC,≤ 0.2
13,RVSN,0.426
14,YNLL,≤ 0.2
15,FCAH,≤ 0.2
16,HSAF,≤ 0.2
17,VWAC,≤ 0.2
18,YARL,≤ 0.2
19,FYGT,≤ 0.2
20,KMHS,≤ 0.2
21,DKML,≤ 0.2
22,TLGS,≤ 0.2
23,PDNC,≤ 0.2
24,PPVA,≤ 0.2
25,YFWL,≤ 0.2

row,Variant,one-hybrid fitness for binding parS DNA
1,IIGK,≤ 0.2
2,KHLD,≤ 0.2
3,THTW,≤ 0.2
4,GWIC,≤ 0.2
5,WRPS,≤ 0.2
6,WPSG,≤ 0.2
7,NFSN,≤ 0.2
8,LRPK,≤ 0.2
9,QRDD,≤ 0.2
10,TFNT,≤ 0.2
11,RLSS,0.991
12,GASF,≤ 0.2
13,YLHS,≤ 0.2
14,WEQG,≤ 0.2
15,KPWQ,0.298
16,CRHV,≤ 0.2
17,LDYW,≤ 0.2
18,YMTF,≤ 0.2
19,WIRM,≤ 0.2
20,RREL,≤ 0.2
21,HCSV,≤ 0.2
22,QTMM,≤ 0.2
23,KIES,≤ 0.2
24,DIRY,≤ 0.2
25,EGQV,≤ 0.2

row,Variant,one-hybrid fitness for binding parS DNA
1,FKTR,≤ 0.2
2,NSWF,≤ 0.2
3,WVPM,≤ 0.2
4,DDVG,≤ 0.2
5,MARW,≤ 0.2
6,MTRW,≤ 0.2
7,RTSK,≤ 0.2
8,DMVA,≤ 0.2
9,FGQY,≤ 0.2
10,MFKC,≤ 0.2
11,VFLR,≤ 0.2
12,AVQC,≤ 0.2
13,PLDT,≤ 0.2
14,NCVK,≤ 0.2
15,HQSC,≤ 0.2
16,DAGL,≤ 0.2
17,YLQL,≤ 0.2
18,HHWI,≤ 0.2
19,SVHR,≤ 0.2
20,NSDM,≤ 0.2
21,WPRT,≤ 0.2
22,EWHT,≤ 0.2
23,TWRS,≤ 0.2
24,MYPR,≤ 0.2
25,EQQR,≤ 0.2

row,Variant,one-hybrid fitness for binding parS DNA
1,MLNL,≤ 0.2
2,QHVS,≤ 0.2
3,GHWR,≤ 0.2
4,WSTM,≤ 0.2
5,ILFG,≤ 0.2
6,GSSA,≤ 0.2
7,SGTH,≤ 0.2
8,TLGH,≤ 0.2
9,PLIR,≤ 0.2
10,NDPQ,≤ 0.2
11,LGRY,≤ 0.2
12,IFQI,≤ 0.2
13,CEMF,≤ 0.2
14,LVWR,≤ 0.2
15,STWS,≤ 0.2
16,MCYV,≤ 0.2
17,EDVR,≤ 0.2
18,RVQF,0.234
19,LHPM,≤ 0.2
20,PQPA,≤ 0.2
21,LGNN,≤ 0.2
22,EAIT,≤ 0.2
23,CNRL,≤ 0.2
24,CTLL,≤ 0.2
25,DVCS,≤ 0.2

row,Variant,one-hybrid fitness for binding parS DNA
1,LCVG,≤ 0.2
2,EQCG,≤ 0.2
3,HVTA,≤ 0.2
4,PGSE,≤ 0.2
5,QSPN,≤ 0.2
6,HKPF,≤ 0.2
7,VCYT,≤ 0.2
8,HKHQ,≤ 0.2
9,TERL,≤ 0.2
10,QQAP,≤ 0.2
11,GLFS,≤ 0.2
12,IWLT,≤ 0.2
13,KYAV,≤ 0.2
14,SRLQ,≤ 0.2
15,AHHI,≤ 0.2
16,RNEN,≤ 0.2
17,TVWS,≤ 0.2
18,ISFS,≤ 0.2
19,KSRV,≤ 0.2
20,IHFS,≤ 0.2
21,VFTF,≤ 0.2
22,QVPH,≤ 0.2
23,ELFW,≤ 0.2
24,ETTL,≤ 0.2
25,SYMG,≤ 0.2

row,Variant,one-hybrid fitness for binding parS DNA
1,KWHY,≤ 0.2
2,QAFR,≤ 0.2
3,TKCW,≤ 0.2
4,YNVR,≤ 0.2
5,AVQT,≤ 0.2
6,HCSF,≤ 0.2
7,AFGR,≤ 0.2
8,AQYS,≤ 0.2
9,NNDN,≤ 0.2
10,STHS,≤ 0.2
11,AEKE,≤ 0.2
12,NRLC,≤ 0.2
13,CLRT,≤ 0.2
14,KRTF,≤ 0.2
15,QSVQ,≤ 0.2
16,RCAG,1.02
17,TSES,≤ 0.2
18,QCMP,≤ 0.2
19,EMSC,≤ 0.2
20,RMCS,1.01
21,QWVK,≤ 0.2
22,SMKY,≤ 0.2
23,NTPN,≤ 0.2
24,QRGR,≤ 0.2
25,RNNL,≤ 0.2

row,Variant,one-hybrid fitness for binding parS DNA
1,PRDM,≤ 0.2
2,PYDS,≤ 0.2
3,IFMR,≤ 0.2
4,PMLQ,≤ 0.2
5,GIMV,≤ 0.2
6,CKTD,≤ 0.2
7,IKLR,≤ 0.2
8,WVGW,≤ 0.2
9,FYNR,≤ 0.2
10,LAGK,≤ 0.2
11,IGED,≤ 0.2
12,MVLL,≤ 0.2
13,LHYG,≤ 0.2
14,TPMK,≤ 0.2
15,PMKS,≤ 0.2
16,PKPP,≤ 0.2
17,ALRM,≤ 0.2
18,GSKS,≤ 0.2
19,WSCF,≤ 0.2
20,TMCT,≤ 0.2

# Reference: a collection of fitness landscapes (doi:10.1016/j.celrep.2020.107928)
